# In article PMC4336329 (PLoS ONE, 2015):
# In all, about 310,000 compounds went through this assay and about 14,000 (4.5%) showed an effect of 50% or more. Effects have a minus sign here. The list shows a part of the results.
# Molecular target: human ether-à-go-go-related gene (hERG) potassium channel (human, UniProt Q12809)
# Test: primary screen, population patch clamp on CHO cells stably expressing hERG
# 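Also: peak tail current of the secondary pulse compared with the same well before compound.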
# Chain of human ether-à-go-go-related gene (hERG) potassium channel (Q12809 whole entry, looked up): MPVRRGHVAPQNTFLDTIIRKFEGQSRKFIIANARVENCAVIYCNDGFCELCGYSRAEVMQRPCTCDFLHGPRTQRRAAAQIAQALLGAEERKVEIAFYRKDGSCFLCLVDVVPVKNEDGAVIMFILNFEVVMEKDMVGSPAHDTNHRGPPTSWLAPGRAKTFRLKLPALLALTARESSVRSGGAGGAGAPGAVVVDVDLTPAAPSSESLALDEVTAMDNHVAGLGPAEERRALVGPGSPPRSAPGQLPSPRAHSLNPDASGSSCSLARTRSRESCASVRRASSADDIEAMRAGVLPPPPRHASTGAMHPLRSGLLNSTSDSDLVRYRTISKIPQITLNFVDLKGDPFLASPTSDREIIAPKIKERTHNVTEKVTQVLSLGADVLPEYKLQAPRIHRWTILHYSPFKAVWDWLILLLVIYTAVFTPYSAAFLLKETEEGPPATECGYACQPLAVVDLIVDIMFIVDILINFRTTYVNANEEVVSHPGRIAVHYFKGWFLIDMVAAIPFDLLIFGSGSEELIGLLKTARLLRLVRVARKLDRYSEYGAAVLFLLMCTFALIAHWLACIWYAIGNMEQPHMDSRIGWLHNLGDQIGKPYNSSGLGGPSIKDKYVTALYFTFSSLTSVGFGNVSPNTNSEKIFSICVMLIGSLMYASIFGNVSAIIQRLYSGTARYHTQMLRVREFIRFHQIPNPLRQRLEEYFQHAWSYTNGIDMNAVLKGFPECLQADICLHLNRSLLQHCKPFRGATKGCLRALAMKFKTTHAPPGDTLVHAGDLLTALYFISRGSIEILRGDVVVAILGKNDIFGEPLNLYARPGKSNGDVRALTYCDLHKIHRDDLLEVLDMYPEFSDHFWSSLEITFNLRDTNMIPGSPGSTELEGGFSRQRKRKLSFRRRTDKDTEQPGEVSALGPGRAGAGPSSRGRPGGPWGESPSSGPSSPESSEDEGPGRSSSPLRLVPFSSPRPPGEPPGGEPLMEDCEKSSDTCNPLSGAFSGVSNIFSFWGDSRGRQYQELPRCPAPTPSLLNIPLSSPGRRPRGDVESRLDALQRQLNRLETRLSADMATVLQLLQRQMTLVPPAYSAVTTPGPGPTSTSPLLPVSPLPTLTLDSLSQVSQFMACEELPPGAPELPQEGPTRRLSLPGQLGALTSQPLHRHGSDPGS
row,SMILES,"hERG current change (%, negative = inhibition) at 10uM [%]"
1,C=CC1=C(C(=O)O)N2C(=O)C(NC(=O)Cc3ccccc3)C2SC1 (stereo not drawn),10.6
2,Cc1noc(C)c1C(=O)Nc1sc(C)c(C)c1C#N,15.6
3,CN1C(=O)NC(=O)/C(=C/c2ccc([N+](=O)[O-])s2)C1=O,-0.751
4,CCCCn1nc2cc(C(=O)NCc3ccc4c(c3)OCO4)ccc2c1OCC,-15.5
5,O=C(CCc1ccc(S(=O)(=O)N2CCOCC2)cc1)Nc1nc(COc2ccccc2)cs1,5.78
6,CCCC(=O)Nc1cccc(NC(=O)c2ccccc2Br)c1,-9.19
7,CC(C)c1ccc(/C=C2\SC(=S)N(CCC(=O)N3CCCCC3CCO)C2=O)cc1 (stereo not drawn),20.3
8,CN(C)c1nc(NCc2ccccc2)nc(SCC(=O)Nc2ccccc2Cl)n1,-13.4
9,C/C(=N\Nc1ccc2nncn2n1)c1ccccn1,18.6
10,Cc1cc(C(=O)OCC(=O)NCc2ccccc2)c(C)o1,6
11,CCOC(=O)CN(C(=O)COc1nc(-c2ccccc2)cc(C)c1C#N)c1ccc(F)cc1,1.18
12,CCCc1cc(=O)[nH]c2nnc(SCC(=O)Nc3cc(C)on3)n12,4.97
13,O=[N+]([O-])c1ccccc1S(=O)(=O)N(CC(O)CN1CCCCC1)c1ccccc1 (stereo not drawn),-29.9
14,CCOC(=O)c1ccc2[nH]c3c(c2c1)CCCCC3=O,9.27
15,COc1ccc(CC2(CO)CCN(Cc3cccnc3)CC2)cc1,-40.3
16,Cc1cccn2c(=O)c(/C=C3\SC(=S)NC3=O)c(NCCCN3CCOCC3)nc12,4.26
17,O=S(=O)(c1ccc(F)cc1)N1CC2CCCN2c2ccc(C(F)(F)F)cc21 (stereo not drawn),15.1
18,CCOc1ccc(C(=O)N(Cc2ccccc2)c2cccc(C)c2)cc1OC,-11.5
19,CN(CC1CCCN(CCc2cccc(C(F)(F)F)c2)C1)C(=O)c1ccc2nc[nH]c2c1 (stereo not drawn),-33.1
20,COc1c(C(C)C)oc2cc3oc(=O)ccc3cc12,-17.8
21,CCCc1cc(C(=O)Cc2ccc(F)cc2)c(O)cc1O,-7.25
22,CC(=O)c1cccc(S(=O)(=O)N2CCC(C(=O)O)CC2)c1,23.2

row,SMILES,"hERG current change (%, negative = inhibition) at 10uM [%]"
1,CCOC(=O)CCn1c(CC(=O)OCC)nc2ccccc21.Cl.O,-39.3
2,CCC(=O)c1c[nH]c(C(=O)NCc2cccc(C(F)(F)F)c2)c1,12.2
3,Cc1ccc(NC(=O)c2c3c(nc4ccccc24)CCC3)cc1S(=O)(=O)N(C)C,11.5
4,CCN(CC)c1ccc(C(=O)Nn2c(C)nc3ccccc3c2=O)cc1,14
5,Cc1cccc(C)c1NC(=O)CN(C)C(=O)c1ccccc1Sc1ccccc1C#N,-4.76
6,O=C(Nc1ccccc1)N1CCN(c2cccc(C(F)(F)F)c2)CC1,-4.95
7,O=C(Nc1ccc(C(F)(F)F)cc1)c1ccc2ncsc2c1,0.541
8,Cc1ccc(F)cc1NC(=O)CN1C(=O)NC(C)(c2ccc3c(c2)OCCO3)C1=O (stereo not drawn),-0.936
9,O=C(Nc1c(Cl)ccc2nsnc12)c1cccnc1,9.41
10,O=C(OCCc1cc2ccccc2c(=O)o1)c1ccc(C(F)(F)F)cc1,10.9
11,Cc1ccc2c(c1)CCCN2S(=O)(=O)c1cccc(C(=O)Nc2ccccc2C(=O)O)c1,-14.7
12,O=C(NCc1ccc(F)cc1)C1CCN(c2cnccn2)CC1,-64.9
13,Cn1cccc1/C=N/NC(=O)C12CC3CC(CC(C3)C1)C2,4.99
14,COc1cc2c(cc1OC)CC[N+](C)=C2.[I-],15.4
15,CCOC(=O)N1CCc2c(sc(NC(=O)C3=COCCO3)c2C(N)=O)C1,4.44
16,CN(CCN1CCOCC1)Cc1nc(-c2cccs2)no1,3.49
17,CCCNC(=O)Cc1c(O)c2ccccc2[nH]c1=O,19
18,O=C(CSc1nc2ccccc2s1)N1N=C(c2cccs2)CC1c1ccc(F)cc1 (stereo not drawn),0.782
19,O=C(NCc1ccc2c(c1)OCO2)c1ccc(CS(=O)Cc2ccc(Cl)cc2)o1 (stereo not drawn),-28.8
20,Cc1ccc2nc(NC(=S)NC(=O)c3cccs3)sc2c1,7.89
21,CN(C)c1ccc(P(=O)(OC2CCCCC2)C(O)c2cccnc2)cc1 (stereo not drawn),-4.2
22,CCCCn1c(SCC(=O)Nc2ccc(C)c(S(=O)(=O)N3CCOCC3)c2)nnc1C(CC)N(C)C (stereo not drawn),-14.9

row,SMILES,"hERG current change (%, negative = inhibition) at 10uM [%]"
1,CCc1ccc(OCc2cnc(Cl)s2)cc1,15.4
2,O=c1[nH][nH]c(C(F)(F)F)c1C=NCc1cccs1,14.7
3,Cc1ccc(-c2cc(C(=O)N3CCN(c4ccccc4O)CC3)c3ccccc3n2)cc1,-1.9
4,CCOC(=O)N1CCN(C(=O)C2CCC(=O)N(Cc3cccc(C(F)(F)F)c3)C2)CC1 (stereo not drawn),-11.1
5,CCOC(=O)Cn1c(Br)nc2c1c(=O)[nH]c(=O)n2C,-58
6,O=C(CCN1C(=O)C2C3CCC(C3)C2C1=O)Nc1ccccc1Cl (stereo not drawn),-9.72
7,CCOCCCNC(=O)C(NC(=O)C1CCC(=O)N1)c1ccc(C)cc1 (stereo not drawn),1.88
8,COc1ccc(C2C(C#N)=C(N)N(c3sc4c(c3C#N)CCCC4)C3=C2C(=O)CC(C)(C)C3)cc1OC (stereo not drawn),10.3
9,COc1ccc(C2c3c(ncn(CCN4CCOCC4)c3=N)Oc3ccc4ccccc4c32)cc1 (stereo not drawn),-47.2
10,CC(=O)c1cccc(NC(=O)CSC(=O)c2ccccc2)c1,12.4
11,CCOC(=O)c1c(NC(=O)CN2C(=O)NC3(CCC(C)CC3)C2=O)sc(C)c1CC (stereo not drawn),4.52
12,O=C(NC(NC(=S)Nc1ccccc1C(=O)O)C(Cl)(Cl)Cl)c1ccccc1 (stereo not drawn),9.78
13,COc1cc(/C=C(\NC(=O)c2ccccc2)C(=O)N2CC3CC(C2)c2cccc(=O)n2C3)cc(OC)c1OC (stereo not drawn),14.8
14,CN(C)c1ccc(N=Nc2ccccc2C(=O)OCC(=O)N2CCCCCC2)cc1,0.421
15,O=C(Nc1ccc(Br)cn1)C1CCCN1S(=O)(=O)c1ccccc1 (stereo not drawn),-42
16,CN(C/C=C/c1ccccc1)Cc1cccc2ccccc12.Cl,-43.2
17,Cc1ccc(N2CC(C(=O)N/N=C/c3c(F)cccc3Cl)CC2=O)cc1 (stereo not drawn),-13.7
18,COc1ccc(-n2c(SCC(=O)O)nc3sc4c(c3c2=O)CCCC4)cc1,20.3
19,O=S(=O)(NCCC1=CCCCC1)c1c(Cl)cccc1Cl,1.38
20,O=C(NCc1nnc2c3ccccc3c(-c3ccccc3)nn12)c1ccc(Cl)cc1,-52.4
21,Cc1nn(CC(=O)Nc2ccc3c(c2)nc(CN2CCCC2)n3C)c(=O)c2ccccc12,-13.4
22,CC(=O)Nc1ccc(S(=O)(=O)NC(CC(=O)N2CCC3(CC2)OCCO3)C(C)C)cc1 (stereo not drawn),18.9

row,SMILES,"hERG current change (%, negative = inhibition) at 10uM [%]"
1,Fc1ccccc1N1CCN(C2CCCN(Cc3ccccc3C(F)(F)F)C2)CC1 (stereo not drawn),-5.91
2,Cc1cc(NC(=O)Nc2cccc3ccccc23)no1,4.13
3,CCOC(=O)C1=C(c2cccc(Oc3ccccc3)c2)NC(=S)NC1C (stereo not drawn),-15.8
4,CC(=O)Nc1ccccc1C(=O)C(=O)Nc1ccc(F)cc1,-0.577
5,O=C(Nn1cnnc1)c1cc2cc(Br)ccc2oc1=O,-5.57
6,COc1ccc(CCNC(=O)CSC2=NS(=O)(=O)c3ccccc3N2)cc1OC,-6.03
7,Cc1ccc(C(=O)C2CCN(S(=O)(=O)c3ccc(C(=O)O)cc3)CC2)cc1,7.93
8,O=C(Oc1cccc2ccccc12)c1ccncc1,-1.26
9,O=C(NCc1ccco1)c1csc(Nc2ccccc2Cl)n1,-63.1
10,NC(=O)c1ccc(N2CCN(c3ccc(O)cc3)CC2)c([N+](=O)[O-])c1,-33.4
11,C/C(=N\NC(=O)CSc1nc2ccccc2c(=O)n1-c1ccccc1C)c1cccs1,6.94
12,CC(=O)N1N=C(c2ccccc2O)OC1(C)CC(=O)Nc1ccccc1 (stereo not drawn),-3.99
13,CCc1ccc(/C=C2/SC(=S)N(CCC(=O)Nc3cccnc3)C2=O)cc1,7.33
14,COc1cc(NC(=O)COc2ccc(-n3ccnc3)cc2)cc(OC)c1,-51.3
15,CCOC(=O)C(=CNc1cc(C(F)(F)F)ccc1N1CCOCC1)C(=O)OCC,-13.2
16,COc1cc(C(=O)N/N=C(\c2ccccc2)c2ccccn2)cc(OC)c1OC,-1.77
17,CC(Oc1ccccc1)C(=O)Nc1cc(Cl)ccc1-n1cncn1 (stereo not drawn),-6.26
18,CC(C)C1=CC(=Nc2ccc(S(N)(=O)=O)cc2)C=C(C(C)C)C1=O.O,-16
19,COc1ccccc1C(CC(=O)O)c1ccc2c(c1)OCO2 (stereo not drawn),8.32
20,Cc1ccc(C(=O)n2nnc3ccccc32)cc1,7.37
21,Cn1c(CNc2nc(-c3ccccc3)cs2)nnc1SCC(=O)N1CCc2ccccc21,0.0993
